Source: patent US20040022772

Experiments:
p160 BCR, P11274 = biological target: T1, p160 BCR, P11274
T1 chain: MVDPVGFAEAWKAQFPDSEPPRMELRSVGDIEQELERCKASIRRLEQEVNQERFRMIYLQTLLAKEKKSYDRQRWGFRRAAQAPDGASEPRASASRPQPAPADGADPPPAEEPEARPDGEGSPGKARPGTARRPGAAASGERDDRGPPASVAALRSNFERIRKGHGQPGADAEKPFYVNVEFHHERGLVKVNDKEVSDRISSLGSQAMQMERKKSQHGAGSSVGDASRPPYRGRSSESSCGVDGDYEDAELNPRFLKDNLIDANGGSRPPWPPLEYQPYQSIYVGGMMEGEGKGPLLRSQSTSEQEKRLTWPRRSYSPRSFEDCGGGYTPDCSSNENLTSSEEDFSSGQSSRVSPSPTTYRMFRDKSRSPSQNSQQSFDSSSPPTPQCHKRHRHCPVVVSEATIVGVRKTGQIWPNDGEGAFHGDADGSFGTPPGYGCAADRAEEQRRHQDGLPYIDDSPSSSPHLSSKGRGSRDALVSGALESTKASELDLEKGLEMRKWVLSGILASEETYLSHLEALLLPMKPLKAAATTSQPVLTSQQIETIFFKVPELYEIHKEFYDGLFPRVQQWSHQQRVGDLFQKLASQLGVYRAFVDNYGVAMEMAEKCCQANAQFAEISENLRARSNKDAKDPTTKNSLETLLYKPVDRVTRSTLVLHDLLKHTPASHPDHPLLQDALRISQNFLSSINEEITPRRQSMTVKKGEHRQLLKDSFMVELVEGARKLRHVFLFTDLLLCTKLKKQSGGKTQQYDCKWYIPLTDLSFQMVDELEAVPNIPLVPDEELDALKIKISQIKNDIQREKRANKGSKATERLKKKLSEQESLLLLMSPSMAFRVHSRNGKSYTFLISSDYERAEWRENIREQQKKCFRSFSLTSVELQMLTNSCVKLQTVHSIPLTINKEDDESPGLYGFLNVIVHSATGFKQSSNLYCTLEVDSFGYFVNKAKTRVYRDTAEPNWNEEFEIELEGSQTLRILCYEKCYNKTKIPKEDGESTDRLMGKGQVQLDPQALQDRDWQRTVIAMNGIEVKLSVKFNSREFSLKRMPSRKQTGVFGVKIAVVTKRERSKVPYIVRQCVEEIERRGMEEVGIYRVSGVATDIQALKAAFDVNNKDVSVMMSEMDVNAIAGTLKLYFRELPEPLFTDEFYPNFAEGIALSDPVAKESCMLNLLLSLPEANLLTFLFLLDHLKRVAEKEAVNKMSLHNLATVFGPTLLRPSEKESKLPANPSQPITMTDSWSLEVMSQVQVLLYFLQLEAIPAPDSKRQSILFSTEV

[1] = biological target: T2, pS354 S17K (phosphoserine Bcr peptide 350-366)
T2 chain: SSRVSPSPTTYRMFRDK

[2] = biological target: T3, unphosphorylated S17K (Bcr peptide 350-366)
T3 chain: SSRVSPSPTTYRMFRDK

B1: p185 BCR-ABL (protein)
chain: MVDPVGFAEAWKAQFPDSEPPRMELRSVGDIEQELERCKASIRRLEQEVNQERFRMIYLQTLLAKEKKSYDRQRWGFRRAAQAPDGASEPRASASRPQPAPADGADPPPAEEPEARPDGEGSPGKARPGTARRPGAAASGERDDRGPPASVAALRSNFERIRKGHGQPGADAEKPFYVNVEFHHERGLVKVNDKEVSDRISSLGSQAMQMERKKSQHGAGSSVGDASRPPYRGRSSESSCGVDGDYEDAELNPRFLKDNLIDANGGSRPPWPPLEYQPYQSIYVGGMMEGEGKGPLLRSQSTSEQEKRLTWPRRSYSPRSFEDCGGGYTPDCSSNENLTSSEEDFSSGQSSRVSPSPTTYRMFRDKSRSPSQNSQQSFDSSSPPTPQCHKRHRHCPVVVSEATIVGVRKTGQIWPNDGEGAFHGDAEALQRPVASDFEPQGLSEAARWNSKENLLAGPSE[in this place about 60 residues]LEKHSWYHGPVSRNAAEYLLSSGINGSFLVRESESSPGQRSISLRYEGRVYHYRINTASDGKLYVSSESRFNTLAELVHHHSTVADGLITTLHYPAPKRNKPTVYGVSPNYDKWEMERTDITMKHKLGGGQYGEVYEGVWKKYSLTVAVKTLKEDTMEVEEFLKEAAVMKEIKHPNLVQLLGVCTREPPFYIITEFMTYGNLLDYLRECNRQEVNAVVLLYMATQISSAMEYLEKKNFIHRDLAARNCLVGENHLVKVADFGLSRLMTGDTYTAHAGAKFPIKWTAPESLAYNKFSIKSDVWAFGVLLWEIATYGMSPYPGIDLSQVYELLEKDYRMERPEGCPEKVYELMRACWQWNPSDRPSFAEIHQAFETMFQESSISDEVEKELGKQGVRGAVSTLLQAPELPTKTRTSRRAAEHRDTTDVPEMPHSKGQGESDPLDHEPAVSPLLPRKERGPPEGGLNEDERLLPKDKKTNLFSALIKKKKKTAPTPPKRSSSFREMDGQPERRGAGEEEGRDISNGALAFTPLDTADPAKSPKPSNGAGVPNGALRESGGSGFRSPHLWKKSSTLTSSRLATGEEEGGGSSSKRFLRSCSASCVPHGAKDTEWRSVTLPRDLQSTGRQFDSSTFGGHKSEKPALPRKRAGENRSDQVTRGTVTPPPRLVKKNEEAADEVFKDIMESSPGSSPPNLTPKPLRRQVTVAPASGLPHKEEAGKGSALGTPAAAEPVTPTSKAGSGAPGGTSKGPAEESRVRRHKHSSESPGRDKGKLSRLKPAPPPPPAASAGKAGGKPSQSPSQEAAGEAVLGAKTKATSLVDAVNSDAAKPSQPGEGLKKPVLPATPKPQSAKPSGTPISPAPVPSTLPSASSALAGDQPSSTAFIPLISTRVSLRKTRQPPERIASGAITKGVVLDSTEALCLAISRNSEQMASHSAVLEAGKNLYTFCVSYVDSIQQMRNKFAFREAINKLENNLRELQICPATAGSGPAATQDFSKLLSSVKEISDIVQR
serine/threonine autophosphorylation of Bcr, high level of Bcr-Abl complexes (p160 BCR, P11274): the level of Bcr autophosphorylation was reduced about 30-fold
serine/threonine autophosphorylation of Bcr, low level of Bcr-Abl (5%) (p160 BCR, P11274): reduced more than 2.5-fold by a low level of Bcr-Abl (5%)
Bcr-Abl kinase activity (autophosphorylation in immune complex auto kinase assay, 50 ug peptide) [1]: strongly inhibited the Bcr-Abl kinase activity
Bcr-Abl kinase activity (autophosphorylation in immune complex auto kinase assay, 50 ug peptide) [2]: unphosphorylated SI 7K had little affect
